Results from PubChem BioAssay AID360 (National Center for Advancing Translational Sciences (NCATS), 2006).
Among all 48,000 compounds or so, about 550 (1.1%) were called active. Another 4% or so got no clear call; they are omitted. Rule as the data show it: active = potency below about 15 µM; inconclusive = mostly about 16 µM to 33 µM; inactive = weaker than that. This is one part of the list.
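Also: the screen sought inhibitors.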
Potency is read from the fitted curve at half-maximal effect.

Each compound was assayed against Lysosomal acid glucosylceramidase (Homo sapiens) (UniProt P04062) (assay: Glucocerebrosidase). Conditions: purified enzyme, resorufin glucoside fluorescence (screen aimed at inhibitors), 20 min.
UniProt P04062, sequence (P04062 whole entry, looked up): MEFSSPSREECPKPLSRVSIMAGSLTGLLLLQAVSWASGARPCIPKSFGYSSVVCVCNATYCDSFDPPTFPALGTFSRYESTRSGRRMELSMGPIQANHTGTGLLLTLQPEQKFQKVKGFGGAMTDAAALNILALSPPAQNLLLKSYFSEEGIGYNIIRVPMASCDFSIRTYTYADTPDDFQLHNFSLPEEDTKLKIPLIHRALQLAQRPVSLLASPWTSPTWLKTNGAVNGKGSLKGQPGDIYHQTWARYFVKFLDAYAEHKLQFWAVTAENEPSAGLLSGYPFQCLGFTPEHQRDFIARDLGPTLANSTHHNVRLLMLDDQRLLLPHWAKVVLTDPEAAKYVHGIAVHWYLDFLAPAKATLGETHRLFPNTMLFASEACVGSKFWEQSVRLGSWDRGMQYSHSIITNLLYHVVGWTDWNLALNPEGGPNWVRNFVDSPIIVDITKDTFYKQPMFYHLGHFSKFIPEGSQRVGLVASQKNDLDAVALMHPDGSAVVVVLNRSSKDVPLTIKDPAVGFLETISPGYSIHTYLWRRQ
Outline: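 Normal human glucocerebrosidase (0.2 nM final) was assayed with resorufin β-D-glucopyranoside (30 uM final) in 50mM citric acid/KH2PO4, 10mM sodium taurocholate, 0.01% tween-20, pH 5.9. Compounds were titrated; fluorescence (Ex 548, Em 600) read after 20 min at RT.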
`CCOC(=O)C1CCN(C(=O)Nc2ccc3snnc3c2)CC1` was tested, and the Potency was inactive: > 76.9 µM.
In the case of `O=C(c1ccc(COc2ccc(Cl)cc2)o1)N1CCN(Cc2ccc3c(c2)OCO3)CC1`, the Potency is reported as inactive: > 76.9 µM.
With `Cc1ccsc1C(=O)OC1CCOC1=O` (stereo unspecified) the Potency was inactive: > 76.9 µM.
In the case of `CC1CCCCN1CCn1c(=S)[nH]c2ncccc2c1=O` (stereo unspecified), the Potency is reported as inactive: > 76.9 µM.
In the case of `O=C(COc1ccccc1O)Nc1ccc(Cl)cc1`, the Potency is reported as inactive: > 76.9 µM.
`CCc1ccccc1NC(=O)N[C@@H](C)C(=O)OC` was tested, and the Potency was inactive: > 76.9 µM.
`O=C(Cc1ccc(-n2cccc2)cc1)NCc1cccs1` was tested, and the Potency was inactive: > 76.9 µM.
For `COc1cccc(C(=O)Nc2ccc(NC(=O)C(C)(C)C)cn2)c1`, the Potency was inactive: > 76.9 µM.
With `Cc1cc(SCC(=O)NC(=O)NCc2ccco2)nc2ccccc12` the Potency was inactive: > 76.9 µM.
`Cn1c(=O)c2cn(-c3ccc4c(c3)OCCO4)cc2n(C)c1=O` was tested, and the Potency was inactive: > 76.9 µM.
In the case of `CCN(CC)CCCNC(=O)c1cc(-c2cccc(Cl)c2)on1`, the Potency is reported as inactive: > 76.9 µM.
`CC1=C(C(=O)Nc2ccccn2)C(c2ccc(Br)cc2)n2ncnc2N1` (stereo unspecified) was tested, and the Potency was inactive: > 76.9 µM.
With `CCN(CC)S(=O)(=O)c1cccc(-c2nnc(SCC(=O)c3cc(C)n(C4CC4)c3C)o2)c1` the Potency was inactive: > 76.9 µM.
In the case of `O=C1CCC(C(=O)OCC(=O)C23CC4CC(CC(C4)C2)C3)N1` (stereo unspecified), the Potency is reported as inactive: > 76.9 µM.
`Cc1ccccc1NC(=O)c1ccccc1` was tested, and the Potency was inactive: > 76.9 µM.
For `COc1ccc(S(=O)(=O)N2CCC(C(N)=O)CC2)c2ccccc12`, the Potency was inactive: > 76.9 µM.
With `Cc1nn2c(N3CCN(C(=O)c4ccco4)CC3)cc(C(C)(C)C)nc2c1-c1ccccc1` the Potency was inactive: > 76.9 µM.
`COc1ccc2c(c1)CCc1c(C(=O)Nc3ccc(OC)c(OC)c3)noc1-2` was tested, and the Potency was inactive: > 76.9 µM.
With `Oc1cccc(C(=S)N2CCN(Cc3ccccc3)CC2)c1` the Potency was inactive: > 76.9 µM.
`COc1ccc(CC(NC(C)=O)C(=O)NC2CCN(c3c4c(nc5ncnn35)CCC4)CC2)cc1` (stereo unspecified) was tested, and the Potency was inactive: > 76.9 µM.
`CC1(C)CC2(CCO1)N1CC3(C)CN2CC(C)(C1)C3O` (stereo unspecified) was tested, and the Potency was inactive: > 76.9 µM.
With `O=C1CC(c2ccc(Cl)cc2)n2nc(N3C(=O)CCC3=O)nc2N1` (stereo unspecified) the Potency was inactive: > 76.9 µM.
For `COc1cc(CC(NC(C)=O)C(=O)NC2CCN(c3nc(C)cc(C)c3C#N)CC2)cc(OC)c1` (stereo unspecified), the Potency was inactive: > 76.9 µM.
In the case of `C=CCN1C(=NC(=O)CCCC(=O)O)SC2CS(=O)(=O)CC21` (stereo unspecified), the Potency is reported as inactive: > 76.9 µM.
`CCc1ccccc1N(CC)C(=O)CCc1nc(-c2ccc(C)cc2)no1` was tested, and the Potency was inactive: > 76.9 µM.
`Cc1ccc(C(=O)C2CCN(CC(=O)NC3CCCCC3)CC2)cc1` was tested, and the Potency was inactive: > 76.9 µM.
`O=C(CCNC(=O)c1ccc(Br)o1)NCc1ccc(Cl)cc1` was tested, and the Potency was inactive: > 76.9 µM.
`CCOc1ccc(NC(=O)Cn2nnc(-c3ccccc3F)n2)cc1` was tested, and the Potency was inactive: > 76.9 µM.
With `Cc1ccc(CCN2CC(C(=O)NCCCN3CCOCC3)CC2=O)cc1` (stereo unspecified) the Potency was inactive: > 76.9 µM.
With `CCN(C(=O)c1cccc(F)c1)c1ccccc1C` the Potency was inactive: > 76.9 µM.
For `CCOc1ccc(C(=O)Nc2c3c(nn2C(C)(C)C)CSC3)cc1OCC`, the Potency was inactive: > 76.9 µM.
`COc1ccc(N2C(=O)C3C4C=CC(C4)C3C2=O)nn1` (stereo unspecified) was tested, and the Potency was inactive: > 76.9 µM.
`Cn1cccc1C(=O)NC(=O)CSc1cccc[n+]1[O-]` was tested, and the Potency was inactive: > 76.9 µM.
With `O=C(CN(c1ccc(F)cc1)S(=O)(=O)c1ccccc1)NCc1ccco1` the Potency was inactive: > 76.9 µM.
For `C=CCn1c(COc2cccc3ccc(C)nc23)nnc1SCC(N)=O`, the Potency was inactive: > 76.9 µM.
In the case of `O=S(=O)(c1ccc(Cl)cc1Br)N1CCCCC1`, the Potency is reported as inactive: > 76.9 µM.
In the case of `CC(C)c1[nH]nc2c1C(c1cccnc1)C(C#N)=C(N)O2` (stereo unspecified), the Potency is reported as inactive: > 76.9 µM.
`O=C(NCCCN1CCOCC1)c1ccc(CS(=O)(=O)Cc2ccc(Cl)cc2)o1` was tested, and the Potency was inactive: > 76.9 µM.
With `COc1ccc2c(c1)c1nnc(SCC(=O)N3C(C)CCCC3C)nc1n2C` (stereo unspecified) the Potency was inactive: > 76.9 µM.
With `CNC(=O)C1C2C=CC3(O2)C1C(=O)N(CCOC)C3C(=O)NCc1ccc(OC)cc1` (stereo unspecified) the Potency was inactive: > 76.9 µM.
`CC1=C(C(=O)OC(C)C)C(c2ccc(F)cc2)NC(=O)N1` (stereo unspecified) was tested, and the Potency was inactive: > 76.9 µM.
`Clc1ccc(-n2nnnc2Sc2ncnc3sccc23)cc1` was tested, and the Potency was inactive: > 76.9 µM.
In the case of `O=C(CSc1nc2ccccc2o1)c1ccc2c(c1)OCCO2`, the Potency is reported as active: 13.6 µM.
For `Nc1nc(CSCc2ccccc2)nc(N2CCOCC2)n1`, the Potency was inactive: > 76.9 µM.
For `CCOc1ccccc1N1CCN(Cc2ccc(OC)c(OC)c2OC)CC1`, the Potency was inactive: > 76.9 µM.
In the case of `CCOC(=O)CSc1nnc(CNC(=O)c2cccs2)n1-c1cccc(C)c1`, the Potency is reported as inactive: > 76.9 µM.
`CS(=O)(=O)N(CC(=O)NCc1ccc2c(c1)OCO2)Cc1ccccc1` was tested, and the Potency was inactive: > 76.9 µM.
In the case of `COc1ccc(CCNC(=O)CSc2cc(=O)[nH]c(N)n2)cc1OC`, the Potency is reported as inactive: > 76.9 µM.
With `Cn1c(-c2ccc(F)cc2)cnc1NCc1ccccc1` the Potency was inactive: > 76.9 µM.
`CC(C)c1ccc(CNc2ccc(N3CCOCC3)cc2)cc1` was tested, and the Potency was inactive: > 76.9 µM.
In the case of `Cc1cccc(Nc2nc3c(c(=O)n(C)c(=O)n3C)n2Cc2ccccc2)c1`, the Potency is reported as inactive: > 76.9 µM.
With `COc1cc(C)c(S(=O)(=O)N2CCCC2)cc1C` the Potency was inactive: > 76.9 µM.
In the case of `CCOC(=O)c1sc2nc(N3CCOCC3)c3c(c2c1N)CCC3`, the Potency is reported as “inactive”.
For `C=CCn1c(=O)c2ccccc2n2c(SCc3nc(N)nc(Nc4ccccc4C)n3)nnc12`, the Potency was inactive: > 76.9 µM.
`CC(C)OC(=O)CSc1ncnc2c1cnn2-c1ccccc1` was tested, and the Potency was inactive: > 76.9 µM.
`CCOC(=O)c1ccccc1NC(=O)CSc1nccn1C` was tested, and the Potency was inactive: > 76.9 µM.
For `Cn1c(=O)cc(OCC(=O)N2CCN(c3cccc(C(F)(F)F)c3)CC2)c2ccccc21`, the Potency was inactive: > 76.9 µM.
`CC(C)c1nnc(SCc2ccc(CSc3nnc(C(C)C)n3N)cc2)n1N` was tested, and the Potency was inactive: > 76.9 µM.
`Cc1c(C(=O)O)[nH]c2c1C(=O)CC(c1ccc(Cl)cc1)C2` (stereo unspecified) was tested, and the Potency was inactive: > 76.9 µM.
In the case of `O=C(N1CCOCC1)N(CCN1CCOCC1)Cc1cccc(Cl)c1`, the Potency is reported as inactive: > 76.9 µM.
In the case of `CN(C)CCCNc1cc(Cl)c(S(=O)(=O)N2CCCCC2)cc1C(=O)O`, the Potency is reported as inactive: > 76.9 µM.
For `CCOC(=O)COn1c(=O)c(-c2cccs2)[n+]([O-])c2ccccc21`, the Potency was inactive: > 76.9 µM.
`COc1cccc(C(=O)Nc2c3c(nn2-c2cccc(C)c2C)CS(=O)(=O)C3)c1OC` was tested, and the Potency was inactive: > 76.9 µM.
In the case of `O=C(CCn1cnc2ccccc2c1=O)Nc1ccc(S(=O)(=O)N2CCCC2)cc1`, the Potency is reported as inactive: > 76.9 µM.
With `COc1ccc(NC(=O)c2cc(-c3ccc(OC)c(OC)c3)on2)cc1OC` the Potency was inactive: > 76.9 µM.
For `COc1ccc(NC(=O)CN(C)S(=O)(=O)c2ccc3c(c2)OCCO3)c2ncccc12`, the Potency was inactive: > 76.9 µM.
With `O=C(O)CCC(=O)N(Cc1ccco1)c1nc(-c2ccccc2)cs1` the Potency was inactive: > 76.9 µM.
For `CCCCSc1nsc(NC(C)=O)n1`, the Potency was inactive: > 76.9 µM.
With `O=C(Nc1ccc(Cl)cn1)c1cnn2cccnc12` the Potency was inactive: > 76.9 µM.
`CCn1c(C)c(C(C)=O)c(N2CCC(C(N)=O)CC2)nc1=S` was tested, and the Potency was inactive: > 76.9 µM.
`CCN(CC)CCCN1C(=O)c2oc3ccccc3c(=O)c2C1c1cccc(OC)c1OC` (stereo unspecified) was tested, and the Potency was inactive: > 76.9 µM.
`CCn1nnnc1-c1ccc(OC)c(S(=O)(=O)N2CCCCC2)c1` was tested, and the Potency was inactive: > 76.9 µM.
In the case of `COc1ccc(C2=NO[C@@H]3C(=O)N(C4CCCCC4)C(=O)[C@H]23)cc1OC`, the Potency is reported as inactive: > 76.9 µM.
`CCn1c(SCC(=O)Nc2cccc(C)n2)nnc1-c1ccco1` was tested, and the Potency was inactive: > 76.9 µM.
`CCOc1ccc(NC(=O)c2ccccc2O)cc1` was tested, and the Potency was inactive: > 76.9 µM.
`Cc1cc(C(=O)COc2ncnc3sccc23)c(C)n1C` was tested, and the Potency was inactive: > 76.9 µM.
`COc1cc(C(=O)Nc2ccc(S(=O)(=O)Nc3cc(C)on3)cc2)cc(OC)c1OC` was tested, and the Potency was inactive: > 76.9 µM.
In the case of `Cc1ccc(O)c(-c2cc(C(F)(F)C(F)F)[nH]n2)c1`, the Potency is reported as inactive: > 76.9 µM.
With `Cc1ccc(C(=O)N2CCN(S(C)(=O)=O)C2)cc1` the Potency was inactive: > 76.9 µM.
With `Oc1cccc(Nc2ncnc3ccccc23)c1` the Potency was inactive: > 76.9 µM.
For `Cc1ccccc1-c1nc(-c2cccnc2)no1`, the Potency was inactive: > 76.9 µM.
`CCOC(=O)c1cn(CC)c2ccc(Br)cc2c1=O` was tested, and the Potency was inactive: > 76.9 µM.
`COc1ccc(C(=O)COc2ccc(NC(C)=O)cc2)cc1` was tested, and the Potency was inactive: > 76.9 µM.
In the case of `Cc1ccc(-n2ncc(C(=O)O)c2C2CCN(C(=O)OC(C)(C)C)CC2)cc1`, the Potency is reported as inactive: > 76.9 µM.
In the case of `CCOC(=O)c1cc2sccc2n1CC(=O)N1CCN(C(=O)c2ccco2)CC1`, the Potency is reported as inactive: > 76.9 µM.
For `CC1CCN(C(=O)Cn2cc(C(=O)c3ccco3)c3ccccc32)CC1`, the Potency was active: 12.7 µM.
With `COc1ccccc1NC(=O)c1ccc(N)cc1` the Potency was inactive: > 76.9 µM.
For `CC(=O)Nc1nonc1-c1nc2ccccc2n1CCC#N`, the Potency was inactive: > 76.9 µM.
`COc1ccc(OC)c(S(=O)(=O)N2c3cc(F)ccc3CCC2C)c1` (stereo unspecified) was tested, and the Potency was inactive: > 76.9 µM.
In the case of `COc1ccc(CCn2c(NCCCN3CCOCC3)nc3c2c(=O)[nH]c(=O)n3C)cc1`, the Potency is reported as inactive: > 76.9 µM.
For `COc1cc(OC)cc(C(=O)N2CCN(Cc3cccc(F)c3)CC2)c1`, the Potency was inactive: > 76.9 µM.
